Measured values published in the supplement of paper PMC12217912.
The other results are listed elsewhere or left out. The full chains were built here from the parent and the listed change. Values near 0.05 are background.

B1: TEV protease; numbered along this chain (parent)
chain: MGESLFKGPRDYNPISSSICHLTNESDGHTTSLYGIGFGPFIITNKHLFRRNNGTLVVQSLHGVFKVKDTTTLQQHLVDGRDMIIIRMPKDFPPFPQKLKFREPQREERICLVTTNFQTKSMSSMVSDTSCTFPSGDGIFWKHWIQTKDGQCGSPLVSTRDGFIVGIHSASNFTNTNNYFTSVPKNFMELLTNQEAQQWVSGWRLNADSVLWGGHKVFMVKPEEPFQPVKEATQL

Variants of: B1
Assay: raw area under fraction-flipped curve 0-4 h after induction (AUC4h, not background-subtracted), DNA-recorder readout of cleavage of the substrate (dimensionless); higher = more cleavage of the substrate by the protease variant
Conditions: temperature: 34 °C; time window: 0-4 h after rhamnose induction
Protocol: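 In vivo DNA recorder in E. coli TOP10(DE3) ΔrhaA at 34 °C. Each TEVp single-site mutant (parent TEVp 0) is paired with a single-site variant of the 7-mer TEVs (canonical ENLYFQ|S). The substrate sits between flexible linkers in a Bxb1-sfGFP-TEVs-SsrA fusion, so cleavage stabilises Bxb1 and speeds flipping of a recombination array, read by NGS. The value is the raw area under the fraction-flipped curve over 0-4 h after rhamnose induction (AUC4h), with ≥20 reads per time point. It is not background-subtracted; inactive controls average about 0.047.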
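Also: Bxb1 expression induced with 0.2% (w/v) L-rhamnose at OD600 near 0.5, cultures sampled hourly, flipped fraction per protease–substrate barcode pair counted by paired-end Illumina sequencing.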

I85K
area with substrate ENLYFAS: 0.0525 | area with substrate ENLYFCS: 0.0665 | area with substrate ENLYFES: 0.0727 | area with substrate ENLYFIS: 0.0392 | area with substrate ENLYFKS: 0.0728 | area with substrate ENLYFMS: 0.0653 | area with substrate ENLYFNS: 0.0556 | area with substrate ENLYFPS: 0.0558 | area with substrate ENLYFTS: 0.0279 | area with substrate ENLYFVS: 0.0514 | area with substrate ENLYFWS: 0.0512

R50L
area with substrate ENLYFAS: 0.043 | area with substrate ENLYFES: 0.0758 | area with substrate ENLYFFS: 0.0545 | area with substrate ENLYFHS: 0.0476 | area with substrate ENLYFIS: 0.0569 | area with substrate ENLYFKS: 0.056 | area with substrate ENLYFLS: 0.0665 | area with substrate ENLYFMS: 0.0656 | area with substrate ENLYFPS: 0.0468 | area with substrate ENLYFSS: 0.0672 | area with substrate ENLYFTS: 0.0576 | area with substrate ENLYFVS: 0.0624 | area with substrate ENLYFWS: 0.0505

L99C
area with substrate ENLYFAS: 0.0561 | area with substrate ENLYFDS: 0.06 | area with substrate ENLYFES: 0.0537 | area with substrate ENLYFFS: 0.0627 | area with substrate ENLYFHS: 0.0459 | area with substrate ENLYFIS: 0.0535 | area with substrate ENLYFLS: 0.0623 | area with substrate ENLYFMS: 0.0544 | area with substrate ENLYFNS: 0.0523 | area with substrate ENLYFPS: 0.0488 | area with substrate ENLYFRS: 0.0602 | area with substrate ENLYFSS: 0.0632 | area with substrate ENLYFTS: 0.0631 | area with substrate ENLYFVS: 0.0516 | area with substrate ENLYFWS: 0.0698 | area with substrate ENLYFYS: 0.05

F92T
area with substrate ENLYFAS: 0.0461 | area with substrate ENLYFES: 0.0571 | area with substrate ENLYFFS: 0.0648 | area with substrate ENLYFHS: 0.0711 | area with substrate ENLYFIS: 0.0489 | area with substrate ENLYFMS: 0.0591 | area with substrate ENLYFPS: 0.0634 | area with substrate ENLYFRS: 0.0547 | area with substrate ENLYFSS: 0.0686 | area with substrate ENLYFTS: 0.031 | area with substrate ENLYFVS: 0.0165 | area with substrate ENLYFYS: 0.0467

L61A
area with substrate ENLYFAS: 0.0463 | area with substrate ENLYFCS: 0.0613 | area with substrate ENLYFES: 0.077 | area with substrate ENLYFFS: 0.0567 | area with substrate ENLYFGS: 0.0592 | area with substrate ENLYFHS: 0.0809 | area with substrate ENLYFIS: 0.0716 | area with substrate ENLYFKS: 0.0682 | area with substrate ENLYFLS: 0.0571 | area with substrate ENLYFMS: 0.0671 | area with substrate ENLYFNS: 0.0723 | area with substrate ENLYFPS: 0.0659 | area with substrate ENLYFRS: 0.0589 | area with substrate ENLYFSS: 0.0454 | area with substrate ENLYFTS: 0.0414 | area with substrate ENLYFVS: 0.0559 | area with substrate ENLYFWS: 0.0624 | area with substrate ENLYFYS: 0.053

I86F
area with substrate ENLYFAS: 0.0627 | area with substrate ENLYFDS: 0.053 | area with substrate ENLYFES: 0.0615 | area with substrate ENLYFFS: 0.0661 | area with substrate ENLYFHS: 0.0575 | area with substrate ENLYFIS: 0.0584 | area with substrate ENLYFKS: 0.0626 | area with substrate ENLYFLS: 0.0593 | area with substrate ENLYFMS: 0.049 | area with substrate ENLYFNS: 0.056 | area with substrate ENLYFPS: 0.0605 | area with substrate ENLYFTS: 0.0542 | area with substrate ENLYFVS: 0.0553 | area with substrate ENLYFWS: 0.0487 | area with substrate ENLYFYS: 0.0909

I86R
area with substrate ENLYFAS: 0.0415 | area with substrate ENLYFCS: 0.0537 | area with substrate ENLYFFS: 0.0512 | area with substrate ENLYFGS: 0.0223 | area with substrate ENLYFHS: 0.0203 | area with substrate ENLYFIS: 0.0396 | area with substrate ENLYFMS: 0.0418 | area with substrate ENLYFPS: 0.0396 | area with substrate ENLYFRS: 0.0226 | area with substrate ENLYFSS: 0.0399 | area with substrate ENLYFTS: 0.0414 | area with substrate ENLYFWS: 0.0332

G63M
area with substrate ENLYFAS: 0.0448 | area with substrate ENLYFCS: 0.103 | area with substrate ENLYFES: 0.0542 | area with substrate ENLYFHS: 0.0515 | area with substrate ENLYFIS: 0.044 | area with substrate ENLYFKS: 0.0756 | area with substrate ENLYFMS: 0.0558 | area with substrate ENLYFPS: 0.055 | area with substrate ENLYFSS: 0.0396 | area with substrate ENLYFTS: 0.049 | area with substrate ENLYFVS: 0.0468 | area with substrate ENLYFWS: 0.0602 | area with substrate ENLYFYS: 0.0666

G63N
area with substrate ENLYFAS: 0.0608 | area with substrate ENLYFCS: 0.0728 | area with substrate ENLYFES: 0.0582 | area with substrate ENLYFFS: 0.0749 | area with substrate ENLYFGS: 0.061 | area with substrate ENLYFIS: 0.0445 | area with substrate ENLYFPS: 0.0579 | area with substrate ENLYFRS: 0.0582 | area with substrate ENLYFSS: 0.0501 | area with substrate ENLYFTS: 0.0533 | area with substrate ENLYFYS: 0.0646

G63I
area with substrate ENLYFAS: 0.0071 | area with substrate ENLYFCS: 0.0584 | area with substrate ENLYFDS: 0.0681 | area with substrate ENLYFES: 0.0536 | area with substrate ENLYFHS: 0.0551 | area with substrate ENLYFIS: 0.0488 | area with substrate ENLYFKS: 0.0565 | area with substrate ENLYFPS: 0.0499 | area with substrate ENLYFRS: 0.0492 | area with substrate ENLYFVS: 0.0321

D91C
area with substrate ENLYFAS: 0.0626 | area with substrate ENLYFCS: 0.0346 | area with substrate ENLYFDS: 0.0358 | area with substrate ENLYFES: 0.0659 | area with substrate ENLYFFS: 0.0657 | area with substrate ENLYFIS: 0.069 | area with substrate ENLYFKS: 0.0691 | area with substrate ENLYFLS: 0.0611 | area with substrate ENLYFMS: 0.0591 | area with substrate ENLYFNS: 0.0512 | area with substrate ENLYFPS: 0.0668 | area with substrate ENLYFRS: 0.0797 | area with substrate ENLYFSS: 0.0534 | area with substrate ENLYFTS: 0.0574 | area with substrate ENLYFWS: 0.0765

K90I
area with substrate ENLYFAS: 0.0724 | area with substrate ENLYFCS: 0.0463 | area with substrate ENLYFES: 0.0584 | area with substrate ENLYFFS: 0.0658 | area with substrate ENLYFGS: 0.0627 | area with substrate ENLYFHS: 0.0519 | area with substrate ENLYFIS: 0.0576 | area with substrate ENLYFKS: 0.0589 | area with substrate ENLYFMS: 0.0723 | area with substrate ENLYFNS: 0.0741 | area with substrate ENLYFPS: 0.0578 | area with substrate ENLYFRS: 0.0546 | area with substrate ENLYFSS: 0.1 | area with substrate ENLYFTS: 0.0615 | area with substrate ENLYFVS: 0.0635 | area with substrate ENLYFWS: 0.0627 | area with substrate ENLYFYS: 0.0474

K90F
area with substrate ENLYFAS: 0.0676 | area with substrate ENLYFCS: 0.107 | area with substrate ENLYFFS: 0.0625 | area with substrate ENLYFGS: 0.0501 | area with substrate ENLYFHS: 0.0632 | area with substrate ENLYFIS: 0.0643 | area with substrate ENLYFMS: 0.0661 | area with substrate ENLYFNS: 0.0618 | area with substrate ENLYFPS: 0.0614 | area with substrate ENLYFRS: 0.0648 | area with substrate ENLYFSS: 0.0412
